Data from the supplement of paper PMC10369915.
This is one part of the list. Rule as the data show it: active = 3.2 or more and inactive = the rest. The signal is at background level for most entries.

Columns and labels:
Assay in all cases: enrichment score (SH2-bound / input frequency) (ratio); bacterial display of known human phosphotyrosine sites (pTyr-Var adds point mutants) read by sequencing; higher = stronger binding; tyrosines were phosphorylated by kinases first
Conditions in all cases: peptide library: pTyr-Var
SHP2 C-SH2 domain E139D = target: SHP2 C-SH2 domain E139D
[1] = target: SHP2 C-SH2 domain wild-type
SHP2 N-SH2 domain L43F = target: SHP2 N-SH2 domain L43F
SHP2 N-SH2 domain T42A = target: SHP2 N-SH2 domain T42A
SHP2 N-SH2 domain T52S = target: SHP2 N-SH2 domain T52S
[2] = target: SHP2 N-SH2 domain wild-type

Measured: enrichment score
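Also: displayed peptides selected on beads carrying the immobilized SH2 domain, with library peptides lacking any tyrosine serving as negative controls.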

ITKQEYDEAGP [ACTA1_Y364]
inactive: SHP2 C-SH2 domain E139D 0.304 | [1] 0.494 | SHP2 N-SH2 domain L43F 0.358 | SHP2 N-SH2 domain T42A 0.411 | SHP2 N-SH2 domain T52S 0.434 | [2] 0.328

GGPTFYIDTNA [ACTL6A_Y69_YF]
inactive: SHP2 C-SH2 domain E139D 1.41 | [1] 1.5 | SHP2 N-SH2 domain L43F 1.2 | SHP2 N-SH2 domain T42A 1.94 | SHP2 N-SH2 domain T52S 1.05 | [2] 1.27

EVKEAYMGNVL [ACAT1_Y90]
inactive: SHP2 C-SH2 domain E139D 0.785 | [1] 0.711 | SHP2 N-SH2 domain L43F 1.28 | SHP2 N-SH2 domain T42A 0.779 | SHP2 N-SH2 domain T52S 0.828 | [2] 0.851

WHYTFYNELRV [ACTC1_Y93_H90Y]
inactive: SHP2 C-SH2 domain E139D 1.16 | [1] 1.11 | SHP2 N-SH2 domain L43F 1.24 | SHP2 N-SH2 domain T42A 1.09 | SHP2 N-SH2 domain T52S 0.965 | [2] 1.4

CDLTDYLMKIL [ACTA1_Y190_R185C]
inactive: SHP2 C-SH2 domain E139D 1.7 | [1] 2.02 | SHP2 N-SH2 domain L43F 1.42 | SHP2 N-SH2 domain T42A 1.55 | SHP2 N-SH2 domain T52S 1.17 | [2] 1.9

WHFTFYNELRV [ACTC1_Y93_H90Y_YF]
inactive: SHP2 C-SH2 domain E139D 0.578 | [1] 1.19 | SHP2 N-SH2 domain L43F 0.805 | SHP2 N-SH2 domain T42A 0.728 | SHP2 N-SH2 domain T52S 0.638 | [2] 1.02

RAHARYCADAR [ACOT4_Y52]
inactive: SHP2 C-SH2 domain E139D 0.654 | [1] 0.55 | SHP2 N-SH2 domain L43F 0.551 | SHP2 N-SH2 domain T42A 0.393 | SHP2 N-SH2 domain T52S 0.518 | [2] 0.636

FSQQTYCRVSN [ABCD1_Y180_Y181C]
inactive: SHP2 C-SH2 domain E139D 0.995 | [1] 0.886 | SHP2 N-SH2 domain L43F 0.792 | SHP2 N-SH2 domain T42A 0.801 | SHP2 N-SH2 domain T52S 0.856 | [2] 0.776

EGELRYMHSRV [ABCD1_Y281_K276E]
inactive: SHP2 C-SH2 domain E139D 0.829 | [1] 0.779 | SHP2 N-SH2 domain L43F 0.866 | SHP2 N-SH2 domain T42A 0.591 | SHP2 N-SH2 domain T52S 0.843 | [2] 0.921

PVLSLYASGRT [ACTA1_Y145_A140P]
inactive: SHP2 C-SH2 domain E139D 1.13 | [1] 0.843 | SHP2 N-SH2 domain L43F 0.961 | SHP2 N-SH2 domain T42A 0.774 | SHP2 N-SH2 domain T52S 1.02 | [2] 1.26

IEDPFYGNDFD [ACP1_Y133_S137F_YF]
inactive: SHP2 C-SH2 domain E139D 0.76 | [1] 0.696 | SHP2 N-SH2 domain L43F 0.817 | SHP2 N-SH2 domain T42A 0.515 | SHP2 N-SH2 domain T52S 0.609 | [2] 0.854

NKHTTYTMEHI [ACTN1_Y708_N707T]
inactive: SHP2 C-SH2 domain E139D 0.655 | [1] 0.733 | SHP2 N-SH2 domain L43F 0.601 | SHP2 N-SH2 domain T42A 0.621 | SHP2 N-SH2 domain T52S 0.69 | [2] 0.526

GPKFGYDEIDN [ACOX1_Y232]
inactive: SHP2 C-SH2 domain E139D 0.627 | [1] 0.588 | SHP2 N-SH2 domain L43F 0.648 | SHP2 N-SH2 domain T42A 0.665 | SHP2 N-SH2 domain T52S 0.701 | [2] 0.658

FSQETYFRVSN [ABCD1_Y180_Q178E_YF]
inactive: SHP2 C-SH2 domain E139D 1.43 | [1] 1.1 | SHP2 N-SH2 domain L43F 0.942 | SHP2 N-SH2 domain T42A 1.12 | SHP2 N-SH2 domain T52S 0.989 | [2] 1.19

WHHTFYNELCV [ACTC1_Y93_R97C]
inactive: SHP2 C-SH2 domain E139D 1.49 | [1] 1.52 | SHP2 N-SH2 domain L43F 1.25 | SHP2 N-SH2 domain T42A 1.28 | SHP2 N-SH2 domain T52S 1.22 | [2] 1.75

HNVAIYEGYAL [ACTC1_Y168_P166A]
inactive: SHP2 C-SH2 domain E139D 0.678 | [1] 0.796 | SHP2 N-SH2 domain L43F 0.729 | SHP2 N-SH2 domain T42A 0.612 | SHP2 N-SH2 domain T52S 0.547 | [2] 0.954

IHETTYNSIKK [ACTA1_Y281_M285K]
inactive: SHP2 C-SH2 domain E139D 0.57 | [1] 1.11 | SHP2 N-SH2 domain L43F 0.638 | SHP2 N-SH2 domain T42A 0.676 | SHP2 N-SH2 domain T52S 0.537 | [2] 0.703

ILILKYPIEHG [ACTA1_Y71_T68I]
inactive: SHP2 N-SH2 domain T42A 2.77
active: SHP2 C-SH2 domain E139D 5.35 | [1] 3.35 | SHP2 N-SH2 domain L43F 4.44 | SHP2 N-SH2 domain T52S 4.38 | [2] 4.67

GDLTDYLMKIL [ACTA1_Y190_R185G]
inactive: SHP2 C-SH2 domain E139D 1.97 | [1] 1.82 | SHP2 N-SH2 domain L43F 1.48 | SHP2 N-SH2 domain T42A 1.59 | SHP2 N-SH2 domain T52S 2.01 | [2] 1.45

RNAAEYLLSSG [ABL1_Y139]
inactive: SHP2 C-SH2 domain E139D 1.25 | [1] 0.723 | SHP2 N-SH2 domain L43F 1.25 | SHP2 N-SH2 domain T42A 0.672 | SHP2 N-SH2 domain T52S 0.743 | [2] 0.994

KAIMIYVSSFY [ACTN4_Y260_T259I]
inactive: SHP2 C-SH2 domain E139D 0.819 | [1] 1.07 | SHP2 N-SH2 domain L43F 1.04 | SHP2 N-SH2 domain T42A 0.919 | SHP2 N-SH2 domain T52S 0.904 | [2] 1.35

ILTLKYLIEHG [ACTG1_Y69_P70L]
inactive: SHP2 C-SH2 domain E139D 2.91 | [1] 3.05 | SHP2 N-SH2 domain L43F 2.31 | SHP2 N-SH2 domain T42A 2.54 | SHP2 N-SH2 domain T52S 2.54 | [2] 2.86

RVNSAYQDKVS [ACAN_Y100]
inactive: SHP2 C-SH2 domain E139D 0.661 | [1] 0.642 | SHP2 N-SH2 domain L43F 0.763 | SHP2 N-SH2 domain T42A 0.544 | SHP2 N-SH2 domain T52S 0.888 | [2] 0.947

LLASRYDSPIN [ABLIM1_Y638]
inactive: SHP2 C-SH2 domain E139D 0.958 | [1] 0.957 | SHP2 N-SH2 domain L43F 0.953 | SHP2 N-SH2 domain T42A 0.812 | SHP2 N-SH2 domain T52S 1.05 | [2] 1.02

GGTTLYPGIAD [ACTC1_Y308_M307L]
inactive: SHP2 C-SH2 domain E139D 0.607 | [1] 0.709 | SHP2 N-SH2 domain L43F 0.731 | SHP2 N-SH2 domain T42A 0.624 | SHP2 N-SH2 domain T52S 0.774 | [2] 0.72

NKPTVCGVSPN [ABL1_Y226_Y226C]
inactive: SHP2 C-SH2 domain E139D 0.859 | [1] 0.692 | SHP2 N-SH2 domain L43F 0.726 | SHP2 N-SH2 domain T42A 0.578 | SHP2 N-SH2 domain T52S 0.899 | [2] 0.783

VGTKRYMAPKV [ACVRL1_Y375_E379K]
inactive: SHP2 C-SH2 domain E139D 0.451 | [1] 0.602 | SHP2 N-SH2 domain L43F 0.561 | SHP2 N-SH2 domain T42A 0.513 | SHP2 N-SH2 domain T52S 0.588 | [2] 0.73

LLASGYDSPIN [ABLIM1_Y638_R637G]
inactive: SHP2 C-SH2 domain E139D 0.924 | [1] 1.16 | SHP2 N-SH2 domain L43F 1.1 | SHP2 N-SH2 domain T42A 0.647 | SHP2 N-SH2 domain T52S 0.902 | [2] 0.828

IIEDPYYGNDF [ACP1_Y132_S137F]
inactive: SHP2 C-SH2 domain E139D 0.612 | [1] 0.868 | SHP2 N-SH2 domain L43F 0.622 | SHP2 N-SH2 domain T42A 0.572 | SHP2 N-SH2 domain T52S 0.715 | [2] 0.68

GPKFVYDEIDN [ACOX1_Y232_G231V]
inactive: SHP2 C-SH2 domain E139D 0.567 | [1] 0.538 | SHP2 N-SH2 domain L43F 0.708 | SHP2 N-SH2 domain T42A 1.24 | SHP2 N-SH2 domain T52S 0.735 | [2] 0.66

FKDGQYWIRGW [ACSF3_Y466_R471W]
inactive: SHP2 C-SH2 domain E139D 1.02 | [1] 1.14 | SHP2 N-SH2 domain L43F 0.783 | SHP2 N-SH2 domain T42A 0.843 | SHP2 N-SH2 domain T52S 0.9 | [2] 0.941

SDLTDYLMKIL [ACTA1_Y190_R185S]
inactive: SHP2 C-SH2 domain E139D 1.7 | [1] 1.72 | SHP2 N-SH2 domain L43F 1.7 | SHP2 N-SH2 domain T42A 1.52 | SHP2 N-SH2 domain T52S 1.58 | [2] 1.67

EMTAEYTCTRK [ACAD9_Y325_A326T]
inactive: SHP2 C-SH2 domain E139D 0.691 | [1] 0.908 | SHP2 N-SH2 domain L43F 0.44 | SHP2 N-SH2 domain T42A 0.825 | SHP2 N-SH2 domain T52S 0.947 | [2] 1.02

IVTLKYPIEHG [ACTB_Y69_L65V]
inactive: SHP2 C-SH2 domain E139D 1.34 | [1] 1.09 | SHP2 N-SH2 domain L43F 1.24 | SHP2 N-SH2 domain T42A 1.1 | SHP2 N-SH2 domain T52S 1.34 | [2] 1.1

IRDENYGEGSS [ACO2_Y665_G661R]
inactive: SHP2 C-SH2 domain E139D 0.41 | [1] 0.437 | SHP2 N-SH2 domain L43F 0.403 | SHP2 N-SH2 domain T42A 0.328 | SHP2 N-SH2 domain T52S 0.467 | [2] 0.598

PIFEGYALPHA [ACTA1_Y171_YF]
inactive: SHP2 C-SH2 domain E139D 0.972 | [1] 0.777 | SHP2 N-SH2 domain L43F 0.686 | SHP2 N-SH2 domain T42A 0.779 | SHP2 N-SH2 domain T52S 0.86 | [2] 0.621

AIFEGYALPHA [ACTC1_Y171_P166A_YF]
inactive: SHP2 C-SH2 domain E139D 1.06 | [1] 0.803 | SHP2 N-SH2 domain L43F 0.857 | SHP2 N-SH2 domain T42A 1.02 | SHP2 N-SH2 domain T52S 0.682 | [2] 1.04
